# From PubChem BioAssay AID504845 (National Center for Advancing Translational Sciences (NCATS), 2011)
# Values joined by “and” are separate entries in the source; they are usually repeats but may differ in a detail not shown here. Equal entries are not always repeated. Hit rate of the full screen: of about 390,000 compounds, about 150 (0.038%) were called active. Not shown: some 3% with an inconclusive outcome. Calls follow the shape of the dose curve; as a rule, active = well fitted inhibition curve with a large enough effect; inconclusive = small, poorly fitted or top-dose-only effect; inactive = no such curve, though single readings can be large or run the other way. This is a selection; strong and weak results do not stand in their true shares. A structure can be active in one record and inactive in another.
# Target: Regulator of G-protein signaling 4 (Homo sapiens) (UniProt P49798)
# Sequence of UniProt P49798 (P49798 whole entry, looked up): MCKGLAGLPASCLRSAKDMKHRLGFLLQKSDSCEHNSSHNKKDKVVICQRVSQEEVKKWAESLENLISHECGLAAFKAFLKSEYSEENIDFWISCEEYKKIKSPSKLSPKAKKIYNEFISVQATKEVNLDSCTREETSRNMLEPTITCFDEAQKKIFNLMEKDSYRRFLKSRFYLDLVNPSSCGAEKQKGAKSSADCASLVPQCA
# Test: Inhibitors of Regulator of G Protein Signaling (RGS) 4: qHTS; also: nearly all actives have a fitted effect of over 75% in size
# Conditions: Transcreener GDP fluorescence polarization, RGS4-accelerated GTP hydrolysis; series mostly up to 114 µM; activity change, negative = inhibition: at the top concentration
# In short: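 MLSMR compounds (23 nl, pin-transferred) preincubated 10 min at room temperature with a 500nM (2x) first reagent, then RGS4 at 900nM (2x) plus Transcreener GDP mix added; fluorescence polarization (620/688 nm) read before and after 90 min at 30 °C.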
# % is scaled to controls: 0 for no effect and ±100 for the full control effect; potency is read from the fitted curve at half-maximal effect.
Structure (SMILES),"activity change, negative = inhibition",Potency
COc1ccc(N2CCN(C(=O)c3cc4c(s3)-c3ccccc3OC4)CC2)cc1,inactive: 2.01%,–
COC(=O)C1=C[C@@H](C(=O)OC)[C@@H]2C3=C(C(=O)[C@@]2(CC(C)C)NC(=O)c2ccccc2)[C@H](C)n2c(=O)n(-c4ccccc4)c(=O)n2[C@@H]3C1,inactive: 3.77%,–
CN(C)[C@@H]1C(=O)C(C(N)=O)=C(O)[C@@]2(O)C(=O)C3=C(O)c4c(O)ccc(Cl)c4[C@@H](O)[C@H]3C[C@@H]12,inactive: -14.6%,–
O=C(CCCN1CCC(O)(c2cccc(C(F)(F)F)c2)CC1)c1ccc(F)cc1,–,inactive
Oc1cc2c(c(Cl)c1O)CCNCC2c1ccccc1 (stereo not given),inactive: 21.5%,–
O=C1S/C(=C\c2ccc(N3CCOCC3)o2)C(=O)N1Cc1c(F)cccc1Cl,inactive: -109%,–
CCCCC/C=C\C[C@H](O)/C=C/c1cccc(C[C@H](O)CCCCO)n1,inactive: -5.04%,–
O=C1CC(c2ccc(F)cc2)Cc2nc(N3CCOCC3)ncc21 (stereo not given),inactive: 169%,–
CC(C)NCC(O)c1cc(O)cc(O)c1 (stereo not given),inactive: 5.84%,–
CC(=O)/C(C)=N/O,inactive: -3.44% [at 56.9 µM],–
CCCn1cnc2c1c(=O)n(CCCCC(C)=O)c(=O)n2C,–,inactive and active: 23.8 µM
CCCCCCCCCCCCCCSCC(=O)O,inactive: 38.5% [at 56.9 µM],–
CC(C)(CO)Cc1cc(C(C)(C)C)c(O)c(C(C)(C)C)c1,inactive: -11.9%,–
C#CCN(C)CCCOc1ccc(Cl)cc1Cl,–,inactive
Cn1c(=O)c2c(ncn2CCO)n(C)c1=O,inactive: 19.8%,–
CN(Cc1cnccn1)Cc1nc(Cc2ccccc2F)no1,inactive: 67.2%,–
CC[C@@](N)(C(=O)O)c1ccc(C(=O)O)cc1,inactive: 402% [at 56.9 µM],–
O=c1oc(/C=C/c2ccco2)nc2sc3c(c12)CCC3,inactive: 75.1%,–
C=C1C(=O)O[C@@H]2[C@H]3O[C@]3(C)CCC=C(C)CC[C@@H]12,inactive: -39% [at 56.9 µM],–
CC(=O)OCC1=C(C(=O)O)N2C(=O)[C@@H](NC(=O)Cc3cccs3)[C@H]2SC1,inactive: -20%,–
NCCCC(N)(C(=O)O)C(F)F (stereo not given),–,inactive
NCCNS(=O)(=O)c1cccc2c(Cl)cccc12,–,inactive
Cc1ccccc1C(OCCN(C)C)c1ccccc1 (stereo not given),–,inactive
CC(=O)N1CCN(C)CC1,inactive: -105% [at 56.9 µM],–
COc1cc2c(cc1OC)C(Cc1ccc(O)cc1)NCC2 (stereo not given),inactive: -29.7%,–
O=C(c1cc([N+](=O)[O-])ccc1Cl)N1CCN(c2ccccn2)CC1,inactive: 59%,–
CCN1/C(=C\C(=S)Nc2ccccc2)Sc2ccccc21,inactive: -36.3%,–

Structure (SMILES),"activity change, negative = inhibition",Potency
Cc1cccc(C)c1OCC(N)C(C)C (stereo not given),inactive: 4.09%,–
CCCCNc1ccc(C(=O)OCCN(C)C)cc1,–,inactive
COc1ccc(NC(=O)c2ccc(-c3ccc(-c4noc(C)n4)cc3C)cc2)cc1N1CCN(C)CC1,inactive: 38.5%,–
COC(=O)C1=C(C)NC(C)=C(C(=O)OCCSc2ccccc2)[C@@H]1C,inactive: -73.2% [at 56.9 µM],–
CCCC[C@H]1CCCO[C@@](C(=O)NCc2ccc(C)o2)(C(F)(F)F)C1,inactive: -45.2%,–
C=C(C)CC1N(c2cccc(OC)c2)C(=O)[C@@H]2C(C(=O)O)[C@H]3C=C[C@@]12O3 (stereo not given in full),inactive: -12.1%,–
O=C(O)c1cccnc1C(=O)O,–,inactive
COc1ccc(OC)c(NC(=O)CSc2nc3n[nH]c(C)c3c(=N)n2-c2cccc(Cl)c2C)c1,inactive: 68.1%,–
COc1ccc(N=C2SC(C(=O)Nc3ccc4c(c3)OCO4)CC(=O)N2C)cc1 (stereo not given),inactive: -13.5%,–
CC1(C)Cc2cccc(OCC(=O)Nc3ccccc3N3CCOCC3)c2O1,inactive: 70%,–
CC/C(=C(\c1ccccc1)c1ccc(OCCN(C)C)cc1)c1ccccc1,–,inactive
C1CCC(NC(=NC2C3CC4CC(C3)CC2C4)N2CCOCC2)CC1 (stereo not given),–,active: 0.336 µM
CCOC(=O)c1cc2c(=O)n3ccccc3nc2n(Cc2ccco2)c1=NC(=O)c1ccccc1OC,inactive: -26.6%,–
O=C(N/N=C/C(Br)=C/c1ccccc1)c1n[nH]c2c1CCC2,inactive: -24.6%,–
Cn1c(=O)c2c(nc(/C=C/c3cccc(Cl)c3)n2C)n(C)c1=O,inactive: -3.57%,–
NC(=S)c1ccc[n+]([C@@H]2O[C@@H](COP(=O)([O-])OP(=O)(O)OC[C@H]3O[C@@H](n4cnc5c(N)ncnc54)[C@H](OP(=O)(O)O)[C@@H]3O)C(O)C2O)c1 (stereo not given in full),–,active: 26.7 µM
Cc1nc2c([nH]1)c(=O)n(C)c(=O)n2Cc1ccco1,–,inactive
CC12CN3CC(C)(CN(C1)C3c1ccc(Cl)cc1Cl)C2O (stereo not given),inactive: 65.9%,–
CC(NCCc1ccc(O)cc1)C(O)c1ccc(O)cc1 (stereo not given),inactive: -7.32%,–
CCC(=O)Nc1cccc(NC(=O)c2cccnc2)c1,inactive: 61.4%,–
c1ccc2sc(N3CCN(Cc4ccc5c(c4)OCO5)CC3)nc2c1,inactive: -185% [at 56.9 µM],–
COc1ccc(CCCO[C@@H](Cn2ccnc2)c2ccc(OC)cc2)cc1,inactive: 293% [at 56.9 µM],–
COC(=O)/C=C1\SC(=Nc2ccc(Cl)c(Cl)c2)NC1=O,inactive: -32.7%,–
CCN(CC)CCCN1C(=O)C(=O)/C(=C(/O)c2cc(C)ccc2C)C1c1cccnc1 (stereo not given),inactive: 66.8%,–
CCN1C(=O)C=CC1=O,inactive: 10.9% [at 56.9 µM],–
Cc1ccc(CNC(=O)c2cc3c(s2)CN(Cc2ccccc2)C3)cc1,inactive: 74%,–
C[N+](C)(C)CCOC(N)=O,–,inactive

Structure (SMILES),"activity change, negative = inhibition",Potency
COc1ccccc1NC(=O)C12CC3CC(C1)CC(c1ccc(C)cc1)(C3)C2,inactive: 54.1%,–
COc1ccc(NC(=O)CCCC(=O)OCC(=O)c2cccc(OC)c2)cc1,inactive: 65.3%,–
COC(=O)c1[nH]c2ccc(C)cc2c1NC(=O)C1=COCCO1,inactive: 55%,–
CN1CCN2c3ccccc3Cc3ccccc3C2C1 (stereo not given),–,inactive
N[C@@H](COP(=O)(O)O)C(=O)O,–,inactive
CCN1CCCC1CNC(=O)c1cc(S(N)(=O)=O)ccc1OC (stereo not given),inactive: -1.83%,–
CC(C)(C)NC(=O)NC(=O)COC(=O)Cc1c(Cl)cccc1Cl,inactive: 64.9%,–
O=C1N=C(O)CN1/N=C/c1ccc(-c2ccc([N+](=O)[O-])cc2)o1,–,inactive
CCOC(=O)C1=C(C)N[C@@]2(O)c3ccccc3C(=O)[C@@]12O,inactive: -14.6%,–
O=C(Nc1ccc([N+](=O)[O-])cc1Cl)c1cc(Cl)ccc1O,inactive: -3.66%,–
COc1ccc(/C=N/NC(=O)c2ccc(CSc3nncn3C)cc2)cc1OC,inactive: 77.7%,–
N[C@]1(C(=O)O)CCc2cc(P(=O)(O)O)ccc21,inactive: 212% [at 56.9 µM],–
NS(=O)(=O)c1cc2c(cc1Cl)NC(C1C[C@H]3C=C[C@@H]1C3)NS2(=O)=O (stereo not given in full),inactive: 4.61%,–
COCCCNc1nc2cc(OC)c(OC)cc2c2nc(-c3ccccc3)nn12,inactive: -6.11%,–
Nc1ccccc1C(=O)C[C@H](N)C(=O)O,inactive: 11.9%,–
COc1ccc(CCn2nnnc2C2(c3ccc(C)cc3)CC2)cc1,inactive: 9.14% [at 56.9 µM],–
CCOC(=O)C(C)Oc1cccc2c(=O)n(CC(=O)Nc3ccc4c(c3)OCCO4)ccc12 (stereo not given),inactive: -35.2%,–
OCC[C@@H]1C[C@@H](O)[C@H](O)[C@@]2(OCCc3ccccc32)O1,inactive: -35.3%,–
CCN1CCN(C(=O)Cn2ncc3c([nH]c4ccc(C)cc43)c2=O)CC1,inactive: 65.1%,–
CCCN(CC1CC1)c1nc(C)nc(Nc2c(Cl)cc(Cl)cc2Cl)c1Cl,–,inactive
CCCCCC(O)CCCC(=O)O (stereo not given),–,inactive
CCOC(=O)Cc1c(C)nc(-c2ccccc2)[nH]c1=O,inactive: 54.4%,–
O=C(CCn1c(=S)[nH]c2ccccc2c1=O)NCCCN1CCOCC1,inactive: 55.9%,–
C[C@H](Cc1ccc(O)c(O)c1)[C@@H](C)Cc1ccc(O)c(O)c1,–,active: 15 µM
COc1cccc2c1C(=O)c1c(O)c3c(c(O)c1C2=O)C[C@](O)(C(C)=O)C[C@H]3O[C@@H]1C[C@@H](N)[C@@H](O)[C@@H](C)O1,inactive: -28.4%,–
NC(N)=NC(N)=Nc1ccccc1,–,inactive
COc1cc(/C=C2/SC(=O)NC2=O)ccc1Oc1ccc([N+](=O)[O-])cc1[N+](=O)[O-],inactive: 32.5% [at 11.4 µM],–

Structure (SMILES),"activity change, negative = inhibition",Potency
C[C@@H]1CC=C[C@H]2[C@H]1C(=O)N(Cc1ccccc1)[C@H]2c1ccc(-c2ccoc2)cc1F,inactive: -47.6%,–
CN([C@@H](Cc1ccc(OS(=O)(=O)c2cccc3cnccc23)cc1)C(=O)N1CCN(c2ccccc2)CC1)S(=O)(=O)c1cccc2cnccc12,inactive: 12.5%,–
CC1(C)Oc2ccc(C(=O)NC3CCCC3)cc2N(CC(=O)NC2CCCCC2)C1=O,inactive: 57.1%,–
CCc1ccc(/C=C2/SC(=S)N(CCCC(=O)Nc3ccccc3C(=O)O)C2=O)cc1,inactive: 1.79%,–
Cc1ccc(S(=O)(=O)N2c3ccccc3NC(=O)C2CC(=O)Nc2ccccc2)cc1 (stereo not given),inactive: 67.4%,–
Cc1onc(-c2ccccc2)c1C(=O)Nc1ccncc1,inactive: 54.1%,–
CCCCc1c(O)nc(SCC(=O)NCCc2ccc(OC)c(OC)c2)[nH]c1=O,inactive: 56.3%,–
COc1ccc(Cl)cc1C(=O)NCCc1ccc(S(=O)(=O)NC(=O)NC2CCCCC2)cc1,–,inactive
CC#C[C@]1(O)CC[C@H]2[C@@H]3CCC4=CC(=O)CCC4=C3[C@@H](c3ccc(N(C)C)cc3)C[C@@]21C,inactive: -13.1%,–
COc1cc(NC(=O)C2CC2C)c(C(=O)O)cc1OC (stereo not given),inactive: 58.5%,–
CCN(CC)CCOCCOC(=O)C1(c2ccccc2)CCCC1,inactive: -3.13%,–
N[C@H]1CONC1=O,–,inactive
Cc1cc(F)c(F)c(C(=O)N2CCN(C)CC2)c1Cl,inactive: 56%,–
COc1ccc(NC(=O)CCC(=O)c2ccc(C(C)C)cc2)cc1,inactive: 71%,–
CC(=O)Nc1ccccc1OC(C)C(=O)N1CCC(C)CC1 (stereo not given),inactive: 55.4%,–
N#CC1=C(N)C(C#N)(C#N)C(c2ccncc2)C2CN(C(=O)OCc3ccccc3)CC=C12 (stereo not given),inactive: -53.6%,–
CN[C@H]1CC[C@@H](c2ccc(Cl)c(Cl)c2)c2ccccc21,–,inactive
N=C(N)SCc1nc2ccccc2c(=O)n1-c1ccccc1,inactive: -36.1%,–
O=C(O)CCC(=O)NCCn1c(-c2ccccc2)csc1=Nc1ccccc1,inactive: -9.42%,–
CC1CCC2[C@](C)(CO)C(O)CC[C@]2(C)C12CCC(CO)(CCO)O2 (stereo not given in full),inactive: -51.2% [at 56.9 µM],–
CC(=O)Nc1nc(C)c(-c2csc(Nc3ccccn3)n2)s1,inactive: -38.2%,–
Cc1ccc2c(=O)cc(C(=O)Nc3ccc(S(=O)(=O)Nc4onc(C)c4C)cc3)oc2c1,inactive: -9.5%,–
O=C(CSc1nnc(Cc2ccccc2)o1)NC1CCCCC1,inactive: 54.2%,–
C[C@](Cc1ccc(O)c(O)c1)(NN)C(=O)O,inactive: -6.49% [at 56.9 µM],–
